# ± gives the standard deviation of the averaged measurements. The list shows a part of the results.
# Test system: PfAP2-LT AP2 domain (GST-tagged)
# Assay: gcPBM binding intensity (ln(normalized median fluorescence intensity)); higher = stronger DNA binding
# In short: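 Alexa488 anti-GST antibody, scanned at 488 nm, detected GST-tagged P. falciparum DNA-binding domains that had been expressed in E. coli and incubated for 1 h on an Agilent 4 × 180k array. The array carried primer-extended double-stranded 36-bp intergenic genomic probes and negative controls. Binding intensity is the highest Masliner-normalised natural-log median intensity across replicate spots of either orientation of each probe.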
row,Sequence,gcPBM binding intensity (ln)
1,TATTATTATTTTATGGTGCAAAAAAAAAAAAAAAAA,8.16 ± 0.52
2,AAAAATTTTTTTTTTTTTTTAAATAATAAAAATGAA [CACACA_negctrl_site1435],7.8 ± 0.44
3,TTTATATATTTTGTCGTGCACATTTGGAAAATTACA [GTGCAC_site9776],8.69 ± 0.47
4,AACATACGACAATACGCACACATATCTGTACATATT [CACACA_site5115],9.49 ± 0.23
5,CATTATTATTAACATACACACGTGTTATATACCCCC [CACACA_site9365],9.49 ± 0.13
6,TATATATTTATTTATAGTACACTATTTATGAAAACC [XGTACX_site3062],8.51 ± 0.47
7,TAACATAAATTTAGGAGTACACTTTTTATACATACA [XGTACX_site4066],8.55 ± 0.42
8,TTTATATTTATTGTTGTGCACAGAACCATATTCGTT,8.94 ± 0.49
9,TATCACTATAGACAAGCATGCATATGTACTAATATC [TGCATGCA_site1020],9.02 ± 0.3
10,AATAAAATGGAATACGGTACACATAATCCTAAAATG [XGTACX_site926],8.99 ± 0.46
11,ATATTATAAAATAAAAGTACACAATTATATATATAT [XGTACX_site8812],8.91 ± 0.26
12,TATTTTTAAAATTAAATGAATAAATAAATAAATATA [XGTACX_negctrl_site553],8.08 ± 0.58
13,ATATATATCGGACACACACACATGTTTTAAAACTAT [CACACA_site4218],9.59 ± 0.44
14,CTTTTATTCAAAAGATGTACTTAAATATATATCTAA [XGTACX_site4326],8.09 ± 0.38
15,ATGTGTATAATTAAATGTACATATATATATATATAT [XGTACX_site829],9.77 ± 0.35
16,TGCAGTCTGGAGAAACGTACACAGTATCTGGTAACA [XGTACX_site2014],8.84 ± 0.37
17,ATTTGAAATTGGTAGACACACAATAAAATATCAAAA [CACACA_site447],8.74 ± 0.49
18,CATATAAATATTTGTGCACACAATTATTAATAATTA [CACACA_site3884],8.99 ± 0.4
19,AAAAAGTTATTATGAACACACATTTATTATAGTCAT [CACACA_site6838],8.81 ± 0.37
20,TTAAACTTGAGACACACACACACACGGATATAAAAA [CACACA_site6495],9.96 ± 0.19
21,ATACTCACGTGACACACACACAATATAAATAAATAT [CACACA_site7862],9.69 ± 0.47
22,TGTATATATATCTCAGTGCATTGCAAATTAAAAATT [GTGCAC_site9646],8.75 ± 0.38
23,GGCTTTTTTTAATATGCACACATATATTTTATATAT [CACACA_site8647],9.12 ± 0.32

row,Sequence,gcPBM binding intensity (ln)
1,TATAATAATCTAATCTGTAGTTTTTTTTTTTTTTTT [CACACA_negctrl_site1206],8.31 ± 0.43
2,AAAAAAAAACAGAAAACACACAAATTATCTTATAAT [CACACA_site4326],8.89 ± 0.47
3,TTTCTAAATAATTATAATGAATCTGCAAACAAGCAT [XGTACX_negctrl_site391],8.16 ± 0.41
4,CTTGAAAAAATAAAAACACACAATGTGTTTTTGAAT [CACACA_site3283],8.7 ± 0.42
5,ATAAAAATAAACATACGTACTTACACGAATATACAT [XGTACX_site5989],9 ± 0.47
6,TTAGATTTAAATATCATACACACTTTATATATAATA [CACACA_site959],8.57 ± 0.38
7,ATATTACTATATTATTGTACGTTAAAAAAAAAAAAT [XGTACX_site8734],8.53 ± 0.35
8,AATAAATAAATAAATAAATATATATATATATATATA [GTGCAC_negctrl_site224],9.29 ± 0.28
9,TTATATTAAAAAAGATGTACGTTTAGGAAAAATATA [XGTACX_site7456],8.37 ± 0.41
10,GTTTTTAGTATTTTTTGTACTTAATACATAGCCTTA [XGTACX_site7318],8.67 ± 0.45
11,AATTGAAAAATATATAAGAAGAAATATATATATGTT [GTGCAC_negctrl_site97],8.63 ± 0.52
12,TTAATATGAAATAAATGTACATAATACATAATAAAA [XGTACX_site6194],8.74 ± 0.49
13,TTTATTAATAAACACACACACACACCCAAAATAAAA [CACACA_site7966],10.2 ± 0.18
14,AAATAGAAGAAATATGCACACATACATTGAAATGTT [CACACA_site7996],9.05 ± 0.38
15,TTTTCTTCATAAATGCTGCACTGGTTTAAGCATGAT,8.6 ± 0.46
16,AAAGAAAAAAAAATTACACACATATATTATATATAT [CACACA_site3211],8.8 ± 0.4
17,CCTTAATATTTTTGAAGTACATATTTATTTTACAAG [XGTACX_site3049],8.46 ± 0.54
18,TATTAACAAATTTATGTGCACTGAGGACAAATATAT,8.97 ± 0.23
19,ATTTATATCTCCATATGTTCAAAACTTTCACAAATA [TGCATGCA_negctrl_site108],8.48 ± 0.41
20,AAAATAAGTAATTACTAATATATAAATTAATAATTA [CACACA_negctrl_site1602],8.51 ± 0.49
21,AATATAAATTAATTTACACACTAAAAAATATATATA [CACACA_site3778],8.72 ± 0.47
22,CATATGTAGGGAACAATATAATATGCTTTGAATATG [GTGCAC_negctrl_site524],8.81 ± 0.44
23,TTTTAATTAGCTAGACGTACAATAATATACAAATAT [XGTACX_site6068],8.63 ± 0.31

row,Sequence,gcPBM binding intensity (ln)
1,ATTTTTTTAAGATAAGAAAAATAAAGTGTGGATATT [XGTACX_negctrl_site476],8.37 ± 0.3
2,TATGTATTCATATGTTGTACATTATATATAATAAGT [XGTACX_site6589],8.7 ± 0.34
3,AGCACACAAAAAAAAAAAAAAAAAAAAAAAGGAATG [GTGCAC_negctrl_site73],8.71 ± 0.57
4,AAATCAGAACCTATTTGTACATATACAAAAATGATT [XGTACX_site2421],8.74 ± 0.38
5,ATTATGTATACATAAACACACATATTTATAAAAAAA [CACACA_site6261],8.98 ± 0.4
6,ATATATTTATATATATGTACATATTATGTTAAGAAA [XGTACX_site1111],8.67 ± 0.49
7,GCTTGTACATTTTTAAAAAATGACTTCGAAAGGAAT [CACACA_negctrl_site453],8.53 ± 0.42
8,TTCCTTATTATTATTTTACACACGTCCTAATAAGAG [CACACA_site8364],9.09 ± 0.49
9,TTTATGCATAGAGAAACATGCAAGAAAGATGCAAAA [TGCATGCA_site726],8.84 ± 0.44
10,AACTCTTAGAATGACGGTACAGTATAATAGGTGAAC [XGTACX_site7163],8.92 ± 0.49
11,ATATAATGAATTATTAGAAAATAAAATGAATAAAGT [CACACA_negctrl_site690],8.93 ± 0.49
12,ATATATATATATAGTGCACACTTAAGAATATAAAGA [CACACA_site4771],9.1 ± 0.43
13,TGTTATATAATTTAGCGTACAGGTTATAGGACGGAT [XGTACX_site8823],8.88 ± 0.28
14,AACTATTACTTTCTTTCACACATTTTTTTTTTTTTT [CACACA_site5355],8.94 ± 0.59
15,ATCATATAAACATATTGTACTTAAATACATAATATT [XGTACX_site3800],8.59 ± 0.34
16,CAAACCCACGGACACACACACACAAAAATGATTAAA [CACACA_site5365],9.71 ± 0.38
17,GGATACGCTTTTGTACCACTCCCCCTTTTGGGAATA [CACACA_negctrl_site1363],8.79 ± 0.24
18,TTTATTTATTTATGTGGTACTTCAAAAATATATACT [XGTACX_site355],8.61 ± 0.47
19,AAATTGGGTACAAATACACACACATATATATATTAA [CACACA_site8745],9.43 ± 0.35
20,ATAGATCCTAATGTTGTGCACATGTAAATTAATATA,8.86 ± 0.47
21,TTTATACAATAAAATGCATGCAAGTATCTATTTTAT [TGCATGCA_site210],8.89 ± 0.39
22,TCAGATATATAGAATACACACATGGATATAAGAAAT [CACACA_site7831],9.19 ± 0.38
23,TTTTTGTAATATTATGATGTCATATATATATATATA [XGTACX_negctrl_site618],9.035 ± 0.078

row,Sequence,gcPBM binding intensity (ln)
1,ATATTTTGTAACTATACACACATATATATATTATAA [CACACA_site3062],8.91 ± 0.31
2,CAAAAGAATATATGTAGTACATGTTGTAGATAATAT [XGTACX_site1044],9.13 ± 0.42
3,CGCGAAGTAGCATTCACACACAGCAAAATATAAATA [CACACA_site7608],9.38 ± 0.43
4,AAAAAACAAAAAAAAAAAAAAATAATACAATATAAT [CACACA_negctrl_site1630],8.63 ± 0.49
5,ACCATATAAATAAACACACACACACCGATATATATA [CACACA_site5310],10.09 ± 0.085
6,TATAATGAACATATGTGTACATATATTTTTTAAATT [XGTACX_site8736],8.76 ± 0.37
7,GCACAACATATATTATCACACACATATATATATATA [CACACA_site8619],10.03 ± 0.092
8,AAAAAAAAAAAATACACACACACATATTTATTTATA [CACACA_site6483],9.61 ± 0.26
9,AAAAAAAAAAATAAATGTACAAAATAATGGGGAACA [XGTACX_site8723],9.15 ± 0.57
10,GTGAATGATTTAAGTACACACCGGTATTTATTCAAA [CACACA_site4950],8.88 ± 0.39
11,ATATATATATATATATGTACATATTTTATTTAATTT [XGTACX_site1807],9.49 ± 0.32
12,TGTATTAAAAATTTGGTGCAACTTTTACATAATAAT,8.6 ± 0.42
13,TTTTTTTTTTTTTTTTGTACGAATAAACAAGTTATT [XGTACX_site5473],8.32 ± 0.44
14,AATATTTATATTAACTGTACAGAAAATATCTTTGCT [XGTACX_site8130],8.68 ± 0.48
15,CATAAGATTTTTACATGTACATATTTATAATATATT [XGTACX_site6578],8.96 ± 0.33
16,GATATATAAATTGACACACACATATATACCTATATA [CACACA_site6689],9.34 ± 0.34
17,TTCTTTTTTTTTTTTTCATGTATATTAAACTTTTCA [TGCATGCA_negctrl_site592],8.59 ± 0.54
18,AATATAAAAATGTTTACACACACACCGAAATATATT [CACACA_site8800],9.51 ± 0.28
19,TATGCCATGGCATAATGTACATAAGTGACCTCATAA [XGTACX_site1294],8.9 ± 0.46
20,GATTCGATCTATATATGTACACATAAATATTTTTTG [XGTACX_site7015],8.84 ± 0.41

# From the supplement of paper PMC11417369
